{"source": "PubChem BioAssay AID1347417", "about": "(National Center for Advancing Translational Sciences (NCATS), 2020)", "note": "The whole screen tested about 120,000 compounds, of which about 5,300 (4.4%) were called active. The shares of active, inactive and inconclusive entries below differ from those in the screen. The call rests on the fitted dose curve; in most records, active means well fitted inhibition curve with a large enough effect; inconclusive means small, poorly fitted or top-dose-only effect; inactive means no such curve, though single readings can be large or run the other way. A potency beside an inconclusive call is a rough fit, not a confirmed value. Potency means the concentration at half of the fitted maximal effect; tags describe the fitted curve by direction and shape."}
{"test": "qHTS Primary assay for Inhibitors of Plasmodium falciparum Dd2 growth in vitro; further: nearly all actives have a fitted effect of over 65% in size;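 on activity, negative = inhibition: plate controls were DMSO vehicle for no effect and reference drug for full effect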", "conditions": "P. falciparum Dd2 growth, SYBR Green, 72 h; activity, negative = inhibition: at 28.9 µM (top of the series) unless noted; series mostly up to 28.9 µM", "outline": "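Infected erythrocytes (Dd2, 0.3% parasitemia, 2.5% hematocrit final) are added to compound in RPMI-1640/Albumax II medium, grown 72 h at 37C in low oxygen, then lysed with saponin/Triton-X containing SYBR Green and read by fluorescence.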"}
{"smiles": "O=C(CC(c1cccc([N+](=O)[O-])c1)c1c[nH]c2ccccc12)NCCc1ccccc1", "note": "(centres undefined)", "Potency": "inconclusive: 1 µM [inhibitor, full curve, poor fit]"}
{"smiles": "Cc1ccc(NC(=O)C2CCCN(c3nnc(-n4c(C)ccc4C)s3)C2)c(C)c1", "note": "(centres undefined)", "Potency": "inconclusive: 12.6 µM [inhibitor, single point]"}
{"smiles": "COCCNc1nc2c([S+](=O)([O-])c3ccncc3)nnn2c2ccccc12", "activity, negative = inhibition": "inactive: 3.85%"}
{"smiles": "COc1ccc(OC)c(NC(=O)c2c(C)oc3ccn(Cc4cccc(F)c4)c(=O)c23)c1", "Potency": "inconclusive: 17.8 µM [inhibitor, single point]"}
{"smiles": "CC(C)COc1ccc(C(=O)NCC2(N3CCN(C)CC3)CCCCC2)cc1", "Potency": "active: 10 µM"}
{"smiles": "COCC1(CNCC2CCCC2)C[C@@H](O)[C@@H](O)C1", "note": "(some centres undefined)", "Potency": "inconclusive: 22.4 µM [inhibitor, single point]"}
{"smiles": "O=C(Nc1ccc2nc(SCC(=O)N3CCOCC3)sc2c1)c1cccc(Cl)c1", "Potency": "inconclusive: 12.6 µM [inhibitor, partial curve, poor fit]"}
{"smiles": "Cc1cc(OCCn2cc(C(=O)c3cccs3)c3ccccc32)ccc1Cl", "Potency": "inconclusive: 11.2 µM [inhibitor, single point]"}
{"smiles": "O=C(NC[C@H]1O[C@@H](CC(=O)N2CCc3ccccc32)[C@H](O)[C@@H]1O)Nc1cccc(F)c1", "Potency": "inconclusive: 14.1 µM [inhibitor, single point]"}
{"smiles": "CC(C)(C)CC(=O)Nc1ccc([C@H]2OCC(=O)N(Cc3ccc(F)cc3)[C@@H]2CO)cc1", "Potency": "inconclusive: 31.6 µM [inhibitor, single point]"}
{"smiles": "CCNC(=O)N(C1CC1)C1CCOC2(CCN(C(=O)NCc3ccccc3)CC2)C1", "note": "(centres undefined)", "activity, negative = inhibition": "inactive: 2.21%"}
{"smiles": "Cc1ccc(-c2nnc(C3CN(C(=O)c4cnc(C)cn4)CC34CCOCC4)o2)cc1", "note": "(centres undefined)", "Potency": "inconclusive: 3.98 µM [inhibitor, single point]"}
{"smiles": "COCCc1nncn1C1CCN(S(=O)(=O)c2cc(F)cc(F)c2)CC1", "activity, negative = inhibition": "inactive: -3.21%"}
{"smiles": "COc1ccc(CCNC(=O)CCn2c(=O)c3ccccc3n(Cc3cc(C)ccc3C)c2=O)cc1OC", "Potency": "inconclusive: 0.158 µM [inhibitor, full curve, poor fit]"}
{"smiles": "COc1cccc(CNC(=O)CCc2c(C)nc3c(c(C)nn3-c3ccc(C)c(C)c3)c2C)c1", "Potency": "inconclusive: 7.94 µM [inhibitor, partial curve, poor fit]"}
{"smiles": "Cc1ncc2n1C(=O)N(C1CCN(Cc3ccnn3C)CC1)C2", "Potency": "inconclusive: 0.398 µM [inhibitor, full curve, poor fit]"}
{"smiles": "Cc1nc2c(-c3ccccc3)c(C)nn2c(C)c1CCC(=O)N1CCN(c2ccc(F)cc2)CC1", "Potency": "inconclusive: 7.94 µM [inhibitor, partial curve, poor fit]"}
{"smiles": "O=C(O)CCCC(=O)N1CCN2C(=O)c3cc(Br)ccc3NC(=O)[C@H]2C1", "activity, negative = inhibition": "inactive: -3.07% [at 44.1 µM]"}
{"smiles": "O=C(O)Cn1ccc2cc(OCC3CCN(C(=O)CCC(F)(F)F)CC3)cnc21", "Potency": "inconclusive: 7.94 µM [inhibitor, partial curve, poor fit]"}
{"smiles": "O=C(c1nc2c(o1)CCN(Cc1ccc3c(c1)CCO3)CC2)N1CCOCC1", "Potency": "inconclusive: 0.355 µM [inhibitor, partial curve, poor fit]"}
{"smiles": "CCNc1cc(N2CCC(CCC(=O)N3CCN(c4cccc(OC)c4)CC3)CC2)ncn1", "Potency": "inconclusive: 3.16 µM [inhibitor, partial curve, poor fit]"}
{"smiles": "Cc1ccc(-n2c(=O)c3cccnc3n2CC(=O)Nc2ccc(Br)cc2)cc1C", "Potency": "inconclusive: 17.8 µM [inhibitor, single point]"}
{"smiles": "Fc1cccc(-c2cnc([C@@H]3COCCN3Cc3cnc[nH]3)[nH]2)c1", "activity, negative = inhibition": "inactive: -20.3% [at 44.1 µM]"}
{"smiles": "CCC(=O)N1CCc2cc(Br)cc(S(=O)(=O)CCC(=O)NCCc3cccc(C)c3)c21", "Potency": "inconclusive: 3.55 µM [inhibitor, single point]"}
{"smiles": "CC(C)(C)OC(=O)N1CCC(c2c(C(=O)NCCN3CCc4ccccc4C3)cnn2-c2ccc(F)cc2F)CC1", "Potency": "inconclusive: 1.58 µM [inhibitor, full curve, poor fit]"}
{"smiles": "Cn1c(Cn2cccn2)nnc1C1CCCN(C(=O)c2cccc(F)c2)C1", "note": "(centres undefined)", "activity, negative = inhibition": "inactive: 6.35%"}
{"smiles": "CCC(CC)NCc1cccnc1Oc1ccccc1", "Potency": "active: 12.6 µM"}
{"smiles": "O=C(c1ccccn1)N1CCCC(CN2CCCC2)CC1", "note": "(centres undefined)", "activity, negative = inhibition": "inactive: 26.5%"}
{"smiles": "CCOc1ccc(N2CC(c3nc4ccccc4n3CCCOc3ccccc3)CC2=O)cc1", "note": "(centres undefined)", "Potency": "active: 12.6 µM"}
{"smiles": "COc1cccc(CN2CCC3(CC2)COc2ccccc2NC3=O)c1", "Potency": "inconclusive: 12.6 µM [inhibitor, single point]"}
{"smiles": "CCc1nc2c(c(-c3ccc(Cl)cc3)n1)CN(C(=O)c1ccc(C(F)(F)F)cc1)CC2", "Potency": "inconclusive: 7.94 µM [inhibitor, partial curve, poor fit]"}
{"smiles": "O[C@@H]1C[C@@H](c2nc(Cc3ccccc3)no2)N(Cc2ccccc2)C1", "outcome": "inactive [at 44.1 µM]"}
{"smiles": "O=C(C1CC1)N1CC2(CCCN2C2COC2)Cc2ccccc21", "note": "(centres undefined)", "Potency": "inconclusive: 10 µM [inhibitor, single point]"}
{"smiles": "COCCN1C(=O)c2ccccc2C(C(=O)Nc2ccc3[nH]ccc3c2)C12CCCC2", "note": "(centres undefined)", "Potency": "active: 11.2 µM"}
{"smiles": "CNC(=O)C1(N2CCC[C@H]2C(=O)N2CCC(C)CC2)CCCCC1", "Potency": "inconclusive: 3.98 µM [inhibitor, partial curve, poor fit]"}
{"smiles": "CCOC(=O)N1CCc2c(sc(NCc3sccc3C)c2C(=O)Nc2ccc(OC)cc2OC)C1", "Potency": "inconclusive: 17.8 µM [inhibitor, single point]"}
{"smiles": "Cc1cc(C)cc(NC(=O)C(Cc2ccccc2)NS(=O)(=O)c2ccc3c(c2)c(=O)n(C)c(=O)n3C)c1", "note": "(centres undefined)", "Potency": "inconclusive: 10 µM [inhibitor, single point]"}
{"smiles": "O=C(NC1CCCC1)C1CCCN(C2CCN(Cc3ccncc3)CC2)C1", "note": "(centres undefined)", "Potency": "inconclusive: 20 µM [inhibitor, partial curve, poor fit]"}
{"smiles": "COc1ccc(C(=O)N2C[C@@H]3OCC(=O)N(Cc4cccnc4)[C@@H]3C2)cc1", "activity, negative = inhibition": "inactive: 10.3% [at 44.1 µM]"}
{"smiles": "O=C(C1CCCC1)N1CCC(N2CC(OCC3CC3)C23CCOCC3)CC1", "note": "(centres undefined)", "outcome": "inactive"}
{"smiles": "O=[S+]1([O-])NCC2(CCCN(Cc3cccc(C(F)(F)F)c3)C2)Oc2ncccc21", "note": "(centres undefined)", "Potency": "inconclusive: 10 µM [inhibitor, single point]"}
{"smiles": "COC(=O)[C@@H]1Cc2c([nH]c3ccccc23)[C@H]2C[C@H](NCCCn3ccnc3)C[C@@H](c3ccccc3F)N21", "Potency": "inconclusive: 2.51 µM [inhibitor, partial curve, poor fit]"}
{"smiles": "Cc1ccccc1CN1C(=O)c2ccccc2S(=O)c2ccc(C(=O)NC3CCC(C)CC3)cc21", "note": "(centres undefined)", "Potency": "inconclusive: 10 µM [inhibitor, single point]"}
{"smiles": "CC(=O)N1c2c(cc(Br)cc2S(=O)(=O)N2CCN(c3cc(C)ccc3C)CC2)CC1C", "note": "(centres undefined)", "Potency": "inconclusive: 0.891 µM [inhibitor, full curve, poor fit]"}
{"smiles": "Cc1ccc(S(=O)(=O)c2nnn3c2nc(N2CCCC2)c2sccc23)cc1C", "activity, negative = inhibition": "inactive: -5.28%"}
{"smiles": "Cc1ccc(-n2c(C3CCN(C(=O)c4cccc(C(F)(F)F)c4)CC3)n[nH]c2=O)cc1", "Potency": "inconclusive: 10 µM [inhibitor, single point]"}
{"smiles": "O=C([C@@H]1C[C@H](Oc2cccnc2)CN1C(=O)CC1CCCCC1)N1CCCC1", "outcome": "inactive"}
{"smiles": "Cc1ccc(S(=O)(=O)c2nnn3c2nc(N2CCN(c4ccccc4F)CC2)c2cc(Cl)ccc23)cc1C", "Potency": "inconclusive: 2.24 µM [inhibitor, single point]"}
{"smiles": "COc1cc2c(cc1OCc1cccnc1)N(C(=O)Cc1cccc(Cl)c1)CC21CCN(CC(=O)O)CC1", "Potency": "inconclusive: 0.398 µM [inhibitor, full curve, poor fit]"}
{"smiles": "COc1ccc(/C=C/C(=O)Nc2ccc3nc4c(c(Nc5ccccc5OC)c3c2)CCCC4)cc1", "Potency": "active: 1.26 µM"}
{"smiles": "Cc1nc(C2CC(O)C2)cc(N(C)Cc2cnc3ccccc3c2)n1", "note": "(centres undefined)", "Potency": "inconclusive: 10 µM [inhibitor, single point]"}
{"smiles": "Fc1ccccc1CC1CCN(CC2[C@H]3CNC[C@@H]23)CC1", "note": "(some centres undefined)", "Potency": "inconclusive: 10 µM [inhibitor, single point]"}
{"smiles": "Cc1nc(-c2cccc(Cl)c2)n(CC(=O)NCCCc2ccccc2)c(=O)c1CCO", "outcome": "inactive"}
{"smiles": "O=C(c1cocn1)N1CCNc2cnc(Nc3cccc(C(F)(F)F)c3)nc2C1", "activity, negative = inhibition": "inactive: -0.931% [at 44.1 µM]"}
{"smiles": "O=C(c1c(F)cccc1F)N1CCC2(CC1)N=C(c1ccc(Cl)cc1)NO2", "Potency": "inconclusive: 2.82 µM [inhibitor, single point]"}
{"smiles": "COc1ccccc1NC(=O)c1c(NCc2ccc(OC)c(OC)c2OC)sc2c1CCC2", "Potency": "inconclusive: 17.8 µM [inhibitor, single point]"}
{"smiles": "N#CC1CCN(C(=O)c2ccc3nnc(-c4cccc(OC(F)(F)F)c4)n3c2)CC1", "activity, negative = inhibition": "inconclusive: -48.3% [inhibitor]"}
{"smiles": "CC(C)c1ccc(NC(=O)Cn2cc(S(=O)(=O)N3CCN(c4ccccc4F)CC3)c3ccccc3c2=O)cc1", "Potency": "active: 10 µM"}
{"smiles": "CNC(=O)[C@@H]1C[C@H](Oc2ccccc2)CN1C(=O)Cn1nc(C)cc1C", "activity, negative = inhibition": "inactive: -10.4%"}
{"smiles": "COC[C@@H]1CN(C(=O)Cn2cccn2)C[C@H]1c1ccncc1", "outcome": "inactive"}
{"smiles": "COCCN1C(=O)CC[C@]2(C(=O)NCc3ccco3)CCCC[C@@H]12", "activity, negative = inhibition": "inactive: -23.3%"}
{"smiles": "O=C(CCc1ccc(O)cc1)N[C@H]1CC[C@H](Nc2nccc(-c3cccnc3)n2)C1", "Potency": "active: 11.2 µM"}
{"smiles": "CCOc1ccc(CCNC(=O)c2cn(C)c3ccc(S(=O)(=O)N4CCCCCC4)cc3c2=O)cc1OCC", "Potency": "inconclusive: 10 µM [inhibitor, single point]"}
{"smiles": "C=CCOC(=O)C1=C(C)N(Cc2cc(F)cc(F)c2)C(=O)CC1c1ccccc1Cl", "note": "(centres undefined)", "outcome": "inactive"}
